Assay results published in the supplement of paper PMC8728848.
Some of the results follow.

Tests used:
Assay in all cases: glycan array binding signal (z-score within array); higher = stronger binding
Conditions in all cases: glycan notation: IUPAC condensed, linker removed
[1] = target: GlcNAc(b1-3)Gal(b1-4)GlcNAc(b1-6)[GlcNAc(b1-3)]Gal(b1-4)GlcNAc
How it was run: (§1)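 Glycan array binding is given as a within-array Z-score, which can be read as non-binding when negative. The arrays, 3228 of them, came from the Consortium for Functional Glycomics database and were retained only where the protein sequence was available. Z-scores were averaged across arrays of the same protein sequence at different concentrations or buffers and across linkers.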

GlcNAc(b1-3)GalNAc = target: GlcNAc(b1-3)GalNAc
How it was run: as §1

GlcNAc(b1-3)Man = target: GlcNAc(b1-3)Man
How it was run: as §1

[2] = target: GlcNAc(b1-3)[GlcNAc(b1-4)][GlcNAc(b1-6)]GlcNAc
How it was run: as §1

[3] = target: GlcNAc(b1-3)[GlcNAc(b1-6)]Gal(b1-4)GlcNAc
How it was run: as §1

[4] = target: GlcNAc(b1-3)[GlcNAc(b1-6)]GalNAc
How it was run: as §1

[5] = target: GlcNAc(b1-3)[GlcNAc(b1-6)]GlcNAc
How it was run: as §1

[6] = target: GlcNAc(b1-4)Gal(b1-4)GlcNAc
How it was run: as §1

GlcNAc(b1-4)GlcNAc = target: GlcNAc(b1-4)GlcNAc
How it was run: as §1

[7] = target: GlcNAc(b1-4)GlcNAc(b1-4)GlcNAc
How it was run: as §1

[8] = target: GlcNAc(b1-4)GlcNAc(b1-4)GlcNAc(b1-4)GlcNAc(b1-4)GlcNAc
How it was run: as §1

[9] = target: GlcNAc(b1-4)GlcNAc(b1-4)GlcNAc(b1-4)GlcNAc(b1-4)GlcNAc(b1-4)GlcNAc
How it was run: as §1

[10] = target: GlcNAc(b1-4)[GlcNAc(b1-6)]GalNAc
How it was run: as §1

[11] = target: GlcNAc(b1-6)Gal(b1-4)GlcNAc
How it was run: as §1

GlcNAc(b1-6)GalNAc = target: GlcNAc(b1-6)GalNAc
How it was run: as §1

[12] = target: GlcNAc6S(b1-3)Gal(b1-4)GlcNAc
How it was run: as §1

Kdn(a2-3)Gal(b1-3)GalNAc = target: Kdn(a2-3)Gal(b1-3)GalNAc
How it was run: as §1

Kdn(a2-3)Gal(b1-3)GlcNAc = target: Kdn(a2-3)Gal(b1-3)GlcNAc
How it was run: as §1

Kdn(a2-3)Gal(b1-4)Glc = target: Kdn(a2-3)Gal(b1-4)Glc
How it was run: as §1

Kdn(a2-3)Gal(b1-4)GlcNAc = target: Kdn(a2-3)Gal(b1-4)GlcNAc
How it was run: as §1

[13] = target: Kdn(a2-3)Gal(b1-4)[Fuc(a1-3)]GlcNAc
How it was run: as §1

Kdn(a2-6)Gal(b1-4)GlcNAc = target: Kdn(a2-6)Gal(b1-4)GlcNAc
How it was run: as §1

[14] = target: Man(a1-2)Man(a1-2)Man(a1-3)Man
How it was run: as §1

[15] = target: Man(a1-2)Man(a1-2)Man(a1-3)[Man(a1-2)Man(a1-3)[Man(a1-2)Man(a1-6)]Man(a1-6)]Man(b1-4)GlcNAc(b1-4)GlcNAc
How it was run: as §1

[16] = target: Man(a1-2)Man(a1-2)Man(a1-3)[Man(a1-2)Man(a1-6)[Man(a1-3)]Man(a1-6)]Man(b1-4)GlcNAc(b1-4)GlcNAc
How it was run: as §1

[17] = target: Man(a1-2)Man(a1-2)Man(a1-6)[Man(a1-3)]Man
How it was run: as §1

Man(a1-2)Man(a1-3)Man = target: Man(a1-2)Man(a1-3)Man
How it was run: as §1

[18] = target: Man(a1-2)Man(a1-3)[Man(a1-2)Man(a1-6)]Man
How it was run: as §1

[19] = target: Man(a1-2)Man(a1-3)[Man(a1-2)Man(a1-6)]Man(a1-6)[Man(a1-2)Man(a1-2)Man(a1-3)]Man
How it was run: as §1

[20] = target: Man(a1-2)Man(a1-3)[Man(a1-2)Man(a1-6)]Man(a1-6)[Man(a1-2)Man(a1-2)Man(a1-3)]Man(b1-4)GlcNAc(b1-4)GlcNAc
How it was run: as §1

[21] = target: Man(a1-2)Man(a1-3)[Man(a1-3)[Man(a1-6)]Man(a1-6)]Man(b1-4)GlcNAc(b1-4)GlcNAc
How it was run: as §1

[22] = target: Man(a1-2)Man(a1-3)[Man(a1-6)]Man(a1-6)[Man(a1-2)Man(a1-3)]Man(b1-4)GlcNAc(b1-4)GlcNAc
How it was run: as §1

[23] = target: Man(a1-2)Man(a1-6)[Man(a1-3)]Man(a1-6)[Man(a1-2)Man(a1-2)Man(a1-3)]Man
How it was run: as §1

[24] = target: Man(a1-2)Man(a1-6)[Man(a1-3)]Man(a1-6)[Man(a1-2)Man(a1-2)Man(a1-3)]Man(b1-4)GlcNAc(b1-4)GlcNAc
How it was run: as §1

Man(a1-3)[Man(a1-6)]Man = target: Man(a1-3)[Man(a1-6)]Man
How it was run: as §1

[25] = target: Man(a1-3)[Man(a1-6)]Man(a1-6)[Man(a1-2)Man(a1-3)]Man(b1-4)GlcNAc(b1-4)GlcNAc
How it was run: as §1

[26] = target: Man(a1-3)[Man(a1-6)]Man(a1-6)[Man(a1-3)]Man
How it was run: as §1

[27] = target: Man(a1-3)[Man(a1-6)]Man(a1-6)[Man(a1-3)]Man(b1-4)GlcNAc(b1-4)GlcNAc
How it was run: as §1

[28] = target: Man(a1-3)[Man(a1-6)]Man(b1-4)GlcNAc(b1-4)GlcNAc
How it was run: as §1

[29] = target: Man(a1-3)[Man(a1-6)]Man(b1-4)GlcNAc(b1-4)[Fuc(a1-6)]GlcNAc
How it was run: as §1

Man(a1-6)Man = target: Man(a1-6)Man
How it was run: as §1

Man(b1-4)GlcNAc = target: Man(b1-4)GlcNAc
How it was run: as §1

MurNAc(b1-4)GlcNAc = target: MurNAc(b1-4)GlcNAc
How it was run: as §1

Neu5Ac(a2-3)Gal = target: Neu5Ac(a2-3)Gal
How it was run: as §1

[30] = target: Neu5Ac(a2-3)Gal(b1-3)GalNAc
How it was run: as §1

B1: OVGAL11 (Ovis aries), AAF64320 (protein)
chain: MDSLPNPYLQSVSLTVCYMVKIKANLLSAFGKNPELQVDFGTGTGQGGNIPFRFWYCDGMVVMNTFTDGSWQKEEKVLTDAFVPGQPFELQFLVLEKEYQVFVKNKPICQFAHRLPLQSVKMLDVRGDIVLTSVDTL
glycan array binding signal (z-score) [1]: -0.102 | glycan array binding signal (z-score) (GlcNAc(b1-3)GalNAc): -0.147 | glycan array binding signal (z-score) (GlcNAc(b1-3)Man): -0.105 | glycan array binding signal (z-score) [2]: -0.138 | glycan array binding signal (z-score) [3]: -0.213 | glycan array binding signal (z-score) [4]: -0.084 | glycan array binding signal (z-score) [5]: -0.46 | glycan array binding signal (z-score) [6]: -0.305 | glycan array binding signal (z-score) (GlcNAc(b1-4)GlcNAc): -0.087 | glycan array binding signal (z-score) [7]: -0.164 | glycan array binding signal (z-score) [8]: -0.316 | glycan array binding signal (z-score) [9]: -0.251 | glycan array binding signal (z-score) [10]: -0.313 | glycan array binding signal (z-score) [11]: -0.185 | glycan array binding signal (z-score) (GlcNAc(b1-6)GalNAc): -0.159 | glycan array binding signal (z-score) [12]: -0.083 | glycan array binding signal (z-score) (Kdn(a2-3)Gal(b1-3)GalNAc): -0.066 | glycan array binding signal (z-score) (Kdn(a2-3)Gal(b1-3)GlcNAc): -0.191 | glycan array binding signal (z-score) (Kdn(a2-3)Gal(b1-4)Glc): -0.108 | glycan array binding signal (z-score) (Kdn(a2-3)Gal(b1-4)GlcNAc): 0.277 | glycan array binding signal (z-score) [13]: -0.087 | glycan array binding signal (z-score) (Kdn(a2-6)Gal(b1-4)GlcNAc): -0.115 | glycan array binding signal (z-score) [14]: 4.38 | glycan array binding signal (z-score) [15]: -0.54 | glycan array binding signal (z-score) [16]: -0.15 | glycan array binding signal (z-score) [17]: -0.179 | glycan array binding signal (z-score) (Man(a1-2)Man(a1-3)Man): -0.111 | glycan array binding signal (z-score) [18]: -0.209 | glycan array binding signal (z-score) [19]: -0.098 | glycan array binding signal (z-score) [20]: -0.133 | glycan array binding signal (z-score) [21]: -0.611 | glycan array binding signal (z-score) [22]: 0.159 | glycan array binding signal (z-score) [23]: -0.038 | glycan array binding signal (z-score) [24]: -0.092 | glycan array binding signal (z-score) (Man(a1-3)[Man(a1-6)]Man): 0.003 | glycan array binding signal (z-score) [25]: -0.077 | glycan array binding signal (z-score) [26]: -0.102 | glycan array binding signal (z-score) [27]: -0.269 | glycan array binding signal (z-score) [28]: -0.23 | glycan array binding signal (z-score) [29]: -0.069 | glycan array binding signal (z-score) (Man(a1-6)Man): -0.048 | glycan array binding signal (z-score) (Man(b1-4)GlcNAc): -0.293 | glycan array binding signal (z-score) (MurNAc(b1-4)GlcNAc): -0.098 | glycan array binding signal (z-score) (Neu5Ac(a2-3)Gal): -0.094 | glycan array binding signal (z-score) [30]: -0.147
